According to PubChem BioAssay AID1963576 (National Center for Advancing Translational Sciences (NCATS), 2024):
Hit rate of the full screen: of about 46,000 compounds, about 60 (0.1%) were called active. About 3% were inconclusive and are not listed. The call rests on the fitted dose curve; in most records, active means well fitted inhibition curve with a large enough effect; inconclusive means small, poorly fitted or top-dose-only effect; inactive means no such curve, though single readings can be large or run the other way. Some of the results follow.

assay: Primary qHTS assay for Inhibitors of ovarian cancer metastasis using an organotypic tumor microenvironment (TME) model.; further: nearly all actives have a fitted effect of over 65% in size;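 on activity change, negative = inhibition: plate controls were DMSO wells for no effect and tomatine positive control wells for full effect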; conditions: SKOV3ip1-GFP adhesion/invasion on 3D omental model, fluorescence; series mostly up to 45.8 µM; activity change, negative = inhibition: at the top concentration
In short: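 Adhesion/invasion was scored as fixed GFP-labeled SKOV3ip1 cell counts (488/509 nm), normalized to DMSO and tomatine controls. Cancer cells in serum-free medium, with four compound doses (0.36-46 umol/L), sat 2 hr at RT then 16 hr at 37 C on a 48 hr fibroblast/mesothelial/ECM culture.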

Activity change, negative = inhibition, inactive:
COC(=O)c1ccc(OC)c(Cn2c(=O)n(-c3ccc(C)cc3)c(=O)c3c2cnn3C)c1 -5.74%
COc1cc2c(cc1OC)C(c1ccc(F)cc1)N(c1ccc(F)cc1)C(=O)C2 (configuration not stated) -3.82%
COc1ccc(-n2c(=O)c3sc4ccccc4c3n(Cc3ccccc3)c2=O)cc1 7.38%
CCN(CC)CCNC(=O)c1ccc2c(c1)N(Cc1ccccc1)C(=O)c1ccccc1S2=O (configuration not stated) -6.71%
Cc1ccc2c(CNC3CCC(C)CC3)c(C(=O)O)n(Cc3cccc(F)c3)c2c1 (configuration not stated) 1.14%
Cc1cccc(C(=O)N(Cc2nc(-c3ccc(Cl)cc3)no2)C(C)C)c1 -17.1%
Cc1cccc(C)c1NC(=O)CN(C)S(=O)(=O)c1ccc2c(c1)n(C)c(=O)c(=O)n2C -7.59%
CCSc1nc(=O)c2c(n1C)NC(=O)CC2c1ccc(O)cc1OC (configuration not stated) -0.164%
CCc1ccc(OCC(=O)NCC(c2ccc(OC)cc2)N2CCOCC2)cc1 (configuration not stated) -11.8%
Cn1cc(C(=O)NCc2ccccc2)c(=O)c2cc(S(=O)(=O)N3CCCCCC3)ccc21 2.44%
COc1cccc(CNC(=O)c2c3c(nc4ccccc24)C(=O)N(C2CCCCC2)C3)c1 3.1%
CCc1nn(CC(=O)NC2CC2)c(=O)c2cc3ccccc3n12 18%
O=C(Cn1c(=O)nc(-c2ccccc2)c2cc(Cl)ccc21)NCCCc1ccccc1 -15.9%
Cc1ccccc1Oc1nc2c(c(=O)n(C)c(=O)n2C)n1Cc1ccc(Br)cc1 -6.98%
Cn1c(=O)c2sccc2n2c(CCC(=O)NCc3ccccc3)nnc12 17.7%
COc1ccc(N2CCN(Cc3nc4c(c(=O)[nH]c(=O)n4C)n3Cc3ccccc3)CC2)cc1 13.3%
Cc1ccc2c(c1)nc(SCC(O)c1ccc(Br)cc1)n2C (configuration not stated) -1.32%
COC(=O)c1ccc(C(=O)OC)c(NC(=O)c2c(-c3ccccc3)c(-c3ccccc3)nn(C)c2=O)c1 25.4%
Cc1ccc(S(=O)Cc2nc(-c3ccc(C(=O)NC(C)c4ccccc4)cc3)oc2C)cc1 (configuration not stated) -3.45%
CC(NC(=O)CSc1n[nH]c(-c2ccccc2)n1)c1nc2ccccc2n1C (configuration not stated) -9.85%
COc1cc(OC)c(NC(=O)c2cc(S(=O)(=O)N3CCCC3)cn2C)cc1Cl -0.642%
CCC1CCCCN1C(=O)Cn1c(=O)n(CC2CCC(C(=O)NC)CC2)c(=O)c2sccc21 (configuration not stated) 3.33%
COc1cc2c(=O)n(CCC(=O)NCC3CCCO3)c(=O)n(CC(=O)Nc3c(C)cccc3C)c2cc1OC (configuration not stated) 2.44%
CCCCOC(=O)c1ccc(NC(=O)/C(C#N)=C/c2ccc(-c3ccccc3)o2)cc1 3.37%
CN(C)c1ccc(CNC(=O)C(Cc2ccccc2)NS(=O)(=O)c2ccc3c(c2)oc(=O)n3C)cc1 (configuration not stated) 4.28%
Cc1ccc(-c2cc(C(=O)N3CCN(S(=O)(=O)c4ccc(Br)s4)CC3)[nH]n2)c(C)c1 -7.84%
CC(=O)c1ccc(NC(=O)CSc2ccc3nc(-c4ccccc4)cn3n2)cc1 4.71%
COc1cc(-c2nnc(SCC(=O)NC(C)C)o2)cc(OC)c1OC 4.13%
CC(C)(C)OC(=O)N1CCC(c2c(C(=O)N3CCN(c4ncccn4)CC3)cnn2-c2ccc(F)cc2F)CC1 -1.85%
COc1ccc(-c2cn3nc(N4CCC(C(=O)Nc5cc(Cl)ccc5OC)CC4)sc3n2)cc1 8.93%
Cc1ccc(C)c(NC(=O)Cn2c(=O)n(Cc3cccs3)c(=O)c3cccnc32)c1 6.94%
CCc1nnc(SCc2nc(-c3ccccc3)oc2C)c2cc3sccc3n12 -2.82%
CCc1ccc(CNC(=O)Cc2c(C(=O)O)c(C)cn2C)cc1 -0.0817%
CC1C(=O)OC2C(O)C34C5CC(C(C)(C)C)C36C(OC(=O)C6O)OC4(C(=O)O5)C12O (configuration not stated) 1.76%
Cc1ccccc1C(=O)Nc1ccc2nc(SCCOc3ccccc3)sc2c1 -23.3%
Cc1ccc(Cl)cc1NC(=O)/C(C#N)=C\c1cn(Cc2ccc(F)cc2)c2ccccc12 -6.29%
COc1ccc(C(=O)Nc2ccc(C(=O)OCc3cc(=O)n4nc(C(C)C)sc4n3)cc2)cc1 0.721%
COc1ccc(-c2nc(SCC(=O)N3CCC(C)CC3)n[nH]2)cc1 36.5%
Nc1c(C(=O)Nc2ccc(Cl)cc2F)sc2nc(-c3cccs3)ccc12 -8.34%
COc1ccc(OC)c(NC(=O)C(CCSC)NS(=O)(=O)c2cccs2)c1 (configuration not stated) 9.24%
CC(=O)N1CCCc2cc(S(=O)(=O)NCc3ccc(OC(C)C)cc3)ccc21 -10.6%
COc1ccc(-c2nn(-c3ccc(F)cc3F)c3c2cnc2ccc(F)cc23)cc1 11.5%
CC(NC(=O)c1cc2sccc2n1Cc1ccc(F)cc1)c1ccccc1 (configuration not stated) 6.77%
COc1ccc(C(=O)Nc2ccc(-c3cc(C(F)(F)F)nn3-c3ccccc3)cc2)cc1OC -24.9%
CCOc1ccc(-c2nonc2NC(=O)c2oc3cc(Br)ccc3c2C)cc1 -22.4%
CCN1CCN(C(=O)c2ccc3c(c2)N(Cc2cc(C)ccc2C)C(=O)c2ccccc2S3(=O)=O)CC1 -10.4%
CCOc1ccc(C(=O)Nc2ccc3nc(SCC(=O)N4CCOCC4)sc3c2)cc1 -12.7%
Cc1ccc(OCC(=O)Nc2ccc(-c3nc4ccc(C)cc4o3)cc2)cc1 -7.63%
Cc1cccc(C(=O)Nc2cccc(C(=O)OCc3cc(=O)n4nc(C5CC5)sc4n3)c2)c1 -2.05%
N#Cc1ccccc1NC(=O)C(=O)NCC(c1cccnc1)N1CCN(c2ccccc2)CC1 (configuration not stated) 0.71%
COc1ccc(CCC(=O)NCc2ccc3c(c2)CCN3C(=O)c2cccc(C)c2)cc1 7.09%
O=C(Nc1ccc(F)cc1F)C1CCCN1S(=O)(=O)c1cccc2nsnc12 (configuration not stated) 6.41%
Cc1cc(NC(=O)CN(c2cccc(C)c2C)S(=O)(=O)c2ccccc2)ccc1Br 12%
O=C(NCCc1ccccc1)c1cnc2sc(N3CCOCC3)nn2c1=O -7.93%
CCOC(=O)c1c(C)oc2nc(C)nc(NCCc3ccc(S(N)(=O)=O)cc3)c12 -11.6%
Cc1cccc(-c2nnc(SCCC(=O)O)o2)c1 -23.4%
COc1cc(CNCCSc2nnnn2C)ccc1OCc1c(F)cccc1Cl -13.8%
CCOC(=O)c1[nH]c(C)c(C(=O)NCc2ccc(F)cc2)c1C 2.35%
O=C(O)c1cccnc1Nc1cccc(C(F)(F)F)c1 16.8%
O=[N+]([O-])c1ccc(C(c2sc3nc(-c4ccco4)nn3c2O)N2CCC3(CC2)OCCO3)cc1 (configuration not stated) -1.44%
CCc1ccc(CNC(=O)C2CCN(c3nnc(-n4c(C)ccc4C)s3)CC2)cc1 -13.7%
COc1ccc(N2CCN(c3oc(/C=C/c4cccc(OC)c4)nc3C#N)CC2)cc1 21%
CCOc1ccc(CCNC(=O)c2cnc3c(-c4ccccc4)c(C)nn3c2C)cc1OCC -4.14%
Cc1cccc(NC(=O)CN2C(=O)CCc3ccccc32)c1C 6.11%
CCCCN(CCCC)c1nc(-c2ccccc2)nc2ccccc12 -16.8%
Cc1oncc1C(=O)Nc1ccc(C(F)(F)F)cc1 -1.28%
Nc1ccn(C2CO[C@H](CO)O2)c(=O)n1 (some centres not stated) 12.5%
CC1(c2ccccc2)CC(C)(C)N(C(=O)c2ccccc2Cl)c2ccccc21 (configuration not stated) 0.596%
COc1ccccc1C(=O)Nc1c(C(=O)Nc2ccc(C)cc2)oc2ccccc12 8.04%
CCN(C(=O)c1cc2c(Cl)nc3ccc(C)cc3c2s1)c1cc(OC)ccc1OC 2.74%
CCC(=O)Nc1ccc(C)cc1-c1nc2ccccc2n(Cc2ccccc2)c1=O -9.3%
Cc1oc(-c2cccc(Cl)c2)nc1CSCC(=O)O 3.14%

outcome, inactive:
COc1ccc(C(=O)Nc2ccc3nc(SCC(=O)N4CCOCC4)sc3c2)cc1
CC1CCN(c2nc3ccc(C(=O)NCc4ccc(Cl)cc4)cc3s2)CC1
COc1cc(NC(=O)c2cc3nc(-c4ccccc4)cc(-c4ccccc4)n3n2)c(OC)cc1Cl
CC(=O)c1cccc(NC(=O)Cn2c(C)c3cnn(-c4ccccc4)c(=O)c3c2C)c1
Cc1ccc(C)c(CSc2nc3ccncc3n2Cc2nc(-c3ccccc3Cl)oc2C)c1
COc1ccc(Cl)cc1S(=O)(=O)Nc1cccc(-c2ccc(N3CCOCC3)nn2)c1
O=C(Nc1ccc(OC(F)(F)F)cc1)NC1COc2ccccc2C1 (configuration not stated)
CCCCc1ccc(Nc2ncnc3c2cnn3-c2ccc(C)cc2)cc1
COc1ccc(NC(=O)c2cc3c(=O)n(Cc4ccco4)ccc3nc2C)c(OC)c1
O=C(NCc1ccc(F)cc1)c1cc2c(s1)-c1ccccc1SC2
O=C(CCCn1c(=O)c2ccccc2n(CC(=O)Nc2ccc(F)cc2F)c1=O)NCc1ccccc1Cl
COc1cccc(CCNc2ncnc3c2nnn3C)c1
Cc1ccc(N(CC(=O)Nc2ccc(Br)c(C)c2)S(=O)(=O)c2cccs2)cc1
CCOc1ccc(CCNC(=O)C2Cc3ccccc3N2C(=O)CC)cc1OCC (configuration not stated)
Fc1ccc(CNc2cc(-c3ccccc3)nc3nncn23)cc1
CCOC(=O)c1c(S(=O)(=O)NCC(=O)NCc2ccc(C)cc2)c(C)n(C)c1C
CCc1cccc(C)c1NS(=O)(=O)c1ccc(-n2cccn2)cc1
CCCOc1ccc(CNC(=O)C2CCN(c3nn4c(=O)cc(C)nc4s3)CC2)cc1
CCCSCCCNC(=O)CN1C(=O)COc2ccc(S(=O)(=O)N3CCCCCC3)cc21
CCOc1ccccc1Nc1ccc2cc(S(=O)(=O)N3CCCCC3)ccc2n1
COc1ccccc1CNC(=O)C(C)n1c(=O)cc(C(F)(F)F)c2c(C)nn(C)c21 (configuration not stated)
CC(C)c1ccc(OCC(=O)Nc2cc(-c3nc4ncccc4o3)ccc2Cl)cc1
CCCCC(=O)Nc1ccc(OCc2cc(=O)n3ccc(C)cc3n2)cc1
COc1cc(C2CC(=O)Nc3cc4c(cc32)OCCO4)cc(OC)c1O (configuration not stated)
COc1ccc(NC(=O)C2CCCN2S(=O)(=O)c2ccc3c(c2)CCCC(=O)N3)cc1Cl (configuration not stated)
